The results in this text go back to ChEMBL document CHEMBL4888484, “Replenishing the malaria drug discovery pipeline: Screening and hit evaluation of the MMV Hit Generation Library 1 (HGL1) against asexual blood stage Plasmodium falciparum ,using a nano luciferase reporter read-out” (2022).

A word on the % Inhibition: it is the relative decrease from the control value, in per cent.

Screen size: about 150,000 compounds; about 540 (0.36%) showed an effect of 50% or more. The list shows a part of the results. Where a SMILES comes first, the peptide text is derived from it. The star is where a group is joined. Cbz = O=C(OCc1ccccc1)*

The experiment has as its system Plasmodium falciparum. In words: Primary screen in NF54 nanoGlo assay, in single point, at 2uM, 72h; a lower Z score goes with more inhibition. Conditions: timepoint 72 hour. The experiment is classed as functional, Erythrocyte.
For the molecule `COC(C)(C)CCN1CCOc2ccccc2[C@@H]1C(=O)O`, the “% Inhibition” value is -8% and the Z score is listed as 1.67.
Taken in the same sequence, the figures for `C#CCN[C@@H](CCCO)c1ccccc1` were 1% and -0.13.
On the same counts, the results for `Cn1nc(C(=O)N(CCCn2ccnc2)Cc2cccnc2)c2c1CCCC2` are -2% and 0.35.
Taken in the same sequence, the figures for `CN(Cc1ccccc1)C(=O)c1cc(-c2ccco2)n[nH]1` were -8% and 1.22.
Consider `Cc1ccc(S(=O)(=O)CCc2nc(-c3cccnc3)n[nH]2)cc1`, for which the “% Inhibition” value was -4% and the Z score was determined as 0.8.
On the same counts, the results for `Cc1nc(C(=O)N(C[C@H]2CCCO2)c2ccncc2)nn1-c1ccccc1Cl` are -4% and 0.44.
Consider `Cc1nn(C)c(C)c1S(=O)(=O)N1CC[C@H](CCOc2ccccc2)C1`, for which the “% Inhibition” value was -2% and the Z score is on record as 0.34.
On the same counts, the results for `O=C(NCC[C@H]1CCOC1)c1ccc(-c2ccc3cc[nH]c3c2)cc1` are -13% and 1.2.
On the same counts, the results for `COc1ccc(NC(=O)C2CC(c3cccc(C)c3)CN(Cc3cccc(F)c3)C2)cc1OC` (stereo not drawn) are -4% and 0.79.
On to `CN1CCN(C[C@H]2CCCN(Cc3cc(C(C)(C)C)[nH]n3)C2)CC1`, for which the “% Inhibition” value is on record as -7% and the Z score came to 1.34.
For the molecule `Cc1ccnc(N(C(=O)c2ccc(C)c(Cl)c2)C(=O)c2ccc(C)c(Cl)c2)c1`, the “% Inhibition” value is on record as -1% and the Z score worked out at 0.1.
On the same counts, the results for `C[C@@]12CN(c3ncnc(N)c3Cl)CC1[C@H]1CC[C@@H]2C1` (stereo partly drawn) are -3% and 0.36.
In the case of `Cc1cc(C)cc(CN2CCN(C(=O)c3ccc(F)cc3C)CC2=O)c1`, the “% Inhibition” value is recorded as -12% and the Z score was 2.56.
For the molecule `Cc1nc(C)c(C(=O)Nc2cccc(C(=O)N3CCc4sccc4C3)c2C)s1`, the “% Inhibition” value is listed as -5% and the Z score is on record as 0.48.
On the same counts, the results for `CCn1nc(C)c(-c2cc(-c3c(C)nn(C)c3C)c(C#N)c(N)n2)c1C` are -4% and 0.68.
On to `Cc1ccc(C2c3ccsc3CCN2CCC(=O)N2CCN(C(=O)Cc3cccs3)C(C)C2)cc1` (stereo not drawn), for which the “% Inhibition” value came to 29% and the Z score is recorded as -2.41.
For `CC(C)CCN1C[C@@H]2Oc3ccccc3C(=O)N(C)[C@@H]2C1`, the “% Inhibition” value is listed as -1% and the Z score is on record as 0.21.
On the same counts, the results for `CC1(C)[C@H](Cc2cc(CCO)on2)C[C@@H]1NS(=O)(=O)c1ccc(F)cc1` are 3% and -0.51.
With `Cc1csc([C@H](C)NC(=O)CN(C)CCO)n1`, the “% Inhibition” value is given as -10% and the Z score worked out at 1.98.
In the case of `O=C(NCCOC1CCCCCC1)c1cn[nH]c1`, the “% Inhibition” value is given as 4% and the Z score is -0.8.
Taken in the same sequence, the figures for `CC(=O)N1CCC(NC(=O)N2CCCC2CC2CC3CCC2C3)CC1` (stereo not drawn) were 7% and -0.93.
With `CCc1nc(-c2cccs2)n(C[C@@H](O)CC)n1`, the “% Inhibition” value was -1% and the Z score was 0.09.
With `CC(C)CC(=O)N[C@@H](Cc1ccccc1)c1nnc(N2CCN(C)CC2)o1`, the “% Inhibition” value was -1% and the Z score amounted to 0.06.
With `NS(=O)(=O)c1cnc(N2CCCCCC2)s1`, the “% Inhibition” value is given as 28% and the Z score was -3.73.
Turning to `c1nc(CN2CCC(NCc3cnc(C4CCC4)s3)CC2)cs1`, the “% Inhibition” value was -8% and the Z score is recorded as 1.05.
`COC[C@H]1CN(C(=O)c2cccc(C)n2)CCC1(F)F`: the “% Inhibition” value is on record as -9% and the Z score amounted to 1.74.
Taken in the same sequence, the figures for `CC(=O)N1CC[C@@]2(CO)CN(S(=O)(=O)c3ccc(F)cc3)C[C@H]2C1` were 8% and -0.94.
For `CCCCCOc1ccc([C@]2(C)C(=O)N(CN3CCOCC3)C(=O)N2CN2CCOCC2)cc1`, the “% Inhibition” value was 4% and the Z score is reported as -0.46.
Take `CN(CCNc1cc([C@H]2CCOC2)ncn1)C(=O)CN1CCCCC1=O`: the “% Inhibition” value is on record as -17% and the Z score was 2.27.
`C[C@@]1(C2CC2)CN(Cc2ccc3cc[nH]c3c2)CCO1`: the “% Inhibition” value was determined as 2% and the Z score was -0.4.
For the molecule `C=CCc1cccc(C(C)C)c1NC(=O)N1CC[C@H](O)C1`, the “% Inhibition” value was -7% and the Z score is reported as 0.71.
Taken in the same sequence, the figures for `COc1ccncc1NC(=O)C1CCCOC1c1ccc(C)cc1` (stereo not drawn) were 0% and -0.06.
On the same counts, the results for `NC(=O)C[C@H](NC(=O)CCc1ccoc1)C1CCCCC1` are -1% and 0.11.
On the same counts, the results for `Cc1nn(C(C)C)c(C)c1CC(=O)N1CCC2(CC1)CNC(=O)N2C` are -4% and 0.57.
With `CC(C)c1ccc(-c2ccnc3c(C(=O)NCc4ccccn4)cnn23)cc1`, the “% Inhibition” value came out at 32% and the Z score was -3.65.
Taken in the same sequence, the figures for `CC1CCCN(CC(C)NS(=O)(=O)CC2(C#N)CC2)C1` (stereo not drawn) were -6% and 0.82.
For `COCCc1nc(CCc2cnn(C)c2)n(-c2cccc3c2CCC3)n1`, the “% Inhibition” value is -7% and the Z score is recorded as 1.32.
With `O=C(c1c(F)c(F)c(-n2c3ccccc3c3ccccc32)c(F)c1F)C(F)(F)F`, the “% Inhibition” value is -1% and the Z score was 0.12.
Take `CC1CN(CCCNC(=O)c2cccc(=O)[nH]2)CC(C)O1` (stereo not drawn): the “% Inhibition” value was -14% and the Z score is listed as 1.99.
As to `CC(C)c1ccc(C2=Nc3ncnn3/C2=N/Cc2ccccc2)cc1`, the “% Inhibition” value is on record as 0% and the Z score was -0.01.
As to `C[C@H](NC(=O)CNC(=O)OCc1ccccc1)C(N)=O` (Cbz-Gly-Ala-NH2), the “% Inhibition” value is listed as -4% and the Z score is listed as 0.72.
For the molecule `c1cc(Cn2ccnc2)cc(NC2CCCCCCC2)c1`, the “% Inhibition” value is recorded as -14% and the Z score worked out at 1.29.
On to `O=C(CC1=CCCCC1)Nc1ccn(CC(F)F)n1`, for which the “% Inhibition” value was 5% and the Z score is given as -0.74.
Take `Cc1cnc(COc2ccc(C)c(F)c2)o1`: the “% Inhibition” value turned out to be 0% and the Z score is recorded as 0.07.
Take `Cc1ncc(CN(C)C(=O)CC2CCCCC2)s1`: the “% Inhibition” value is -14% and the Z score turned out to be 1.94.
Regarding `CNC(=O)c1ccc(N2C[C@@H](C(F)(F)F)OC(C)(C)C2)nc1`, the “% Inhibition” value was -1% and the Z score is reported as 0.19.
`CCCn1c(-c2cccc(C(=O)NC3CCCC3)c2)nc2cccnc21`: the “% Inhibition” value is -11% and the Z score was determined as 1.49.
On the same counts, the results for `CN(C)S(=O)(=O)N(CCC(F)(F)F)C1CCCCC1` are -2% and 0.36.
On the same counts, the results for `Cc1ccccc1-n1ncnc1CC1CCNCC1` are -6% and 0.89.
Turning to `O=C(O)c1ccc(OCCN2CCCC2C2CCCOC2)c(Cl)c1` (stereo not drawn), the “% Inhibition” value is recorded as -5% and the Z score is given as 0.72.
Taken in the same sequence, the figures for `CN(Cc1cccnc1)C(=O)c1ccsc1` were 13% and -1.16.
Consider `CCc1c(C)c(C(=O)NCCc2ccc(OC)c(OC)c2)n(Cc2ccc(C)cc2)c1C`, for which the “% Inhibition” value is recorded as -2% and the Z score turned out to be 0.18.
With `CN(CC=Cc1ccc(F)cc1)Cc1cnn(C)c1`, the “% Inhibition” value is listed as -6% and the Z score was 0.65.
On the same counts, the results for `C[C@@H](C(=O)N(C)C)S(=O)(=O)N1CCN(C)CC12CCCCC2` are -5% and 0.66.
Regarding `O=C(NCc1noc(Cc2cccs2)n1)c1cnc2ccccn12`, the “% Inhibition” value is recorded as -2% and the Z score was found to be 0.41.
In the case of `C[C@](O)(CNC(=O)C1CCCC1)c1cccs1`, the “% Inhibition” value is -1% and the Z score is recorded as 0.12.
With `CCn1cc(C(=O)Nc2ccc(-n3ccnn3)cc2)c(C(F)(F)F)n1`, the “% Inhibition” value was -5% and the Z score turned out to be 0.6.
Turning to `O=C(Nc1ccc(-c2ccn[nH]2)cc1)[C@H]1CCCN(Cc2cccc3nonc23)C1`, the “% Inhibition” value is given as 3% and the Z score is on record as -0.44.
On the same counts, the results for `CCn1ccnc1CN(C)C(=O)CN(C)CCOC` are -18% and 3.08.
For the molecule `Cc1ccc(OC(=O)c2ccccc2Cl)c(-n2nc3ccccc3n2)c1`, the “% Inhibition” value is reported as -11% and the Z score was determined as 1.27.
Turning to `COc1ccc(CNc2nc(-c3ccc(C)cc3)nnc2C)cc1`, the “% Inhibition” value was 5% and the Z score is listed as -0.99.
For `Cc1ccc(-n2c(=O)c3ccccc3n(CC(=O)N3CCCC3)c2=O)cc1C`, the “% Inhibition” value was found to be 5% and the Z score was -0.55.
For `Cn1ncnc1CNc1cccc(Cl)c1Br`, the “% Inhibition” value amounted to 37% and the Z score was -4.81.
On the same counts, the results for `O=C(O)CCc1cc2n(n1)CCCN(Cc1cc3c(cc1Cl)OCO3)C2` are -5% and 0.84.
On the same counts, the results for `CC(C)[C@H](CNC(=O)CCC1CCCC1)c1cccnc1` are 3% and -0.23.
On the same counts, the results for `COc1cccc(C2(C(=O)N3CC[C@](C)(C(=O)O)C3)CCCC2)c1` are -8% and 1.06.
Turning to `CCCC1(CCC)C(=N)NC(=O)NC1=O`, the “% Inhibition” value is reported as -4% and the Z score is 0.69.
As to `CC(C)c1ccc(N(C)C(=O)c2ccc(C(=O)O)o2)cc1`, the “% Inhibition” value is given as -3% and the Z score was 0.67.
With `COc1ccc(-n2c(C)cc(C(=O)N3CCO[C@@H](CC(=O)O)C3)c2C)cc1`, the “% Inhibition” value is reported as 2% and the Z score is -0.31.
`CN(Cc1ncc[nH]1)C(=O)c1ccc2c(c1)n(CC1CC1)c(=O)n2C1CCCCC1`: the “% Inhibition” value is given as -6% and the Z score is listed as 0.72.
On the same counts, the results for `Cc1nn(C)cc1Cn1ccnc1-c1nccn1C(C)C` are -7% and 1.41.
Taken in the same sequence, the figures for `O=C(c1ccccc1)c1ccc(N2C(=O)c3ccc(C(c4ccc5c(c4)C(=O)N(c4ccc(C(=O)c6ccccc6)cc4)C5=O)(C(F)(F)F)C(F)(F)F)cc3C2=O)cc1` were 2% and -0.33.
On the same counts, the results for `CCCn1c(C(=O)N2CCN(CC)CC2)cc2cc(NC(=O)c3cccc(F)c3)ccc21` are -14% and 1.76.
Regarding `CCc1nc(C)c(C(=O)N[C@H]2CCN(C)C2=O)s1`, the “% Inhibition” value worked out at 10% and the Z score is given as -1.31.
Taken in the same sequence, the figures for `COc1cc(OC)cc(C(=O)N2CCCN(c3nc4c(s3)c(C)nn4-c3ccc(C)cc3)CC2)c1` were -5% and 0.78.
In the case of `CCCO/C(=N/C(=O)c1ccc(C(F)(F)F)cc1)NCc1ccc2c(c1)OCO2`, the “% Inhibition” value is reported as -5% and the Z score was 0.53.
Taken in the same sequence, the figures for `Cn1cnc2cc(CNC(=O)c3cccc(Cl)c3)ccc21` were -20% and 1.92.
On the same counts, the results for `COc1cc2ccc1OCC(=O)N[C@@H](C)C(=O)N(C)CCCCN(C(=O)[C@@H]1CCCO1)CCCNC2=O` are -12% and 1.48.
Taken in the same sequence, the figures for `CC[C@@H](C(=O)N1CCN=C1N1CCN(c2ccccc2F)CC1)c1ccccc1` were -9% and 1.57.
Turning to `Cc1n[nH]cc1CNC1(CNC(=O)OC(C)(C)C)CCCCC1C` (stereo not drawn), the “% Inhibition” value is on record as -9% and the Z score is given as 1.24.
On the same counts, the results for `CN(Cc1ccccc1)C(=O)c1cc2sccc2n1Cc1cccc(Cl)c1` are -12% and 1.2.
On the same counts, the results for `CC(=O)Nc1ccc(CNC2(Cc3cc(CN4CCCCC4)on3)COC2)cc1` are 4% and -0.7.
Taken in the same sequence, the figures for `O=C(CCc1conc1-c1ccc(F)cc1)NCc1ccccc1Br` were -8% and 1.03.
For the molecule `Cc1cccc(N(CCC(N)=O)C(=O)c2[nH]c3c(c2C)C(=O)CCC3)c1`, the “% Inhibition” value is listed as -12% and the Z score was 1.65.
